In paper PMC12136788:
The other results are listed elsewhere or left out.

T1: UNK ZnF1-3 (human, UniProt Q9C0B0 31-174)
T1 sequence: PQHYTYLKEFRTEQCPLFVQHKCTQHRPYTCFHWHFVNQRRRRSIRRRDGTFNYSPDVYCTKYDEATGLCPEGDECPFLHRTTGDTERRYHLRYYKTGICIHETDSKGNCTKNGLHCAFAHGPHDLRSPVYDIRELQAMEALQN

B1: chr7:135612270:135612271:-_ENSG00000105887_ENST00000393085|hu_mus|hu_hu_hu_mus_False|1_88 (ssRNA)
RNA: GGGAGUUCUACAGUCCGACGAUCGUUUUUUUCUGAGAUGUUAAAUAUUCAGUGGAGGGAAAACAAAACUUAACCUUUUAUUAAUGCGUGUUGUACCAAAAGCAGACAUUUUAGCUUCAUUUAUUCAAAAAUAUUAAGAACAUUCAACAGAGGAUUGAGCAUCA
B2: chr19:16212804:16212805:+_ENSG00000167460_ENST00000300933|hu_mus|hu_hu_hu_mus_False|68_88 (ssRNA)
RNA: GGGAGUUCUACAGUCCGACGAUCAACAAUUCUGGAGUGAAGGAAAGCAUCAAGGAUGAACAGCAUUCCAUCUAUUACAGAAGGCACAUGGGCAACAAUGAUCACCCCAGCAUUCUCGCUUGGAAUGCUUAAAGACAAUCUGUUCAACAGAGGAUUGAGCAUCA
B3: chr2:181922443:181922444:+_ENSG00000170035_ENST00000410062|hu_mus|FALSE|FALSE (ssRNA)
RNA: GGGAGUUCUACAGUCCGACGAUCAACACCACCUUCAUAUACAGAACCUGGUGGACCAAGUAUAGUUGACCUCCAUUCAUAAAUGUUAUCUCCUUUAGGCCCAGCACUGCAGUUAGGAGGAGGAUCAAGGGUUAUCUCUGCUAGCAACAGAGGAUUGAGCAUCA
B4: chr3:176767854:176767855:-_ENSG00000177565_ENST00000430069|hu_hu|hu_hu_hu_mus_False|38_108 (ssRNA)
RNA: GGGAGUUCUACAGUCCGACGAUCGACAUCCUUGUUGCUGGGCACGUCCUGCCCUCCUUCCCGUAUGCAGUGUCUAAGCACGAGCUGCGUAGGGCCACUGGUGCUGUUCUCACUGAGGUUCCAGAUUCUUGCCGUGGAGUCUCCCAACAGAGGAUUGAGCAUCA
B5: 23952904_23953024_1872_CDS_ENSMUSG00000039218_ENSMUST00000088621|mouse|control|control (ssRNA)
RNA: GGGAGUUCUACAGUCCGACGAUCGCCACUUCUCCUGGCUGGUGUUCUGGACCUAGACCUACCACUUCUCCUAGCUUGGGAUCUACUCCGAGACCUCCUUCGAACUGGUGAUCGUGUCCUAGACCUGCGGCGAGCGGGUGUUCUCAACAGAGGAUUGAGCAUCA
B6: 4694108_4694228_2005_3pUTR_ENSMUSG00000066324_ENSMUST00000084949|mouse|control|control (ssRNA)
RNA: GGGAGUUCUACAGUCCGACGAUCAUCCUGAUCAGUGGAGAAAGGAUGAACAAUGGCCCCUUUCAUAGGGAAAUGAAAAUCAACUGCAACACUCAGACAAUUCCAGUAUAAUUCAGUCAUCUGUCUACCUUCUACCAGCUGGUCCAACAGAGGAUUGAGCAUCA
B7: chr1:220369670:220369671:-_ENSG00000118873_ENST00000358951|hu_mus|FALSE|FALSE (ssRNA)
RNA: GGGAGUUCUACAGUCCGACGAUCGAAGCCAGUGAACGGACUGGAGCCCACAGUGAUGUACUGAGACAUGGCAGGCGGACUGUUUUUAAUUGCUGCAUUAAAUCCACCUAUAUUGGAAGCAGUCUUCAUUUGAUCAAAUGGUGACAACAGAGGAUUGAGCAUCA
B8: chr12:48362563:48362564:+_ENSG00000134291_ENST00000256686|hu_hu|hu_hu_hu_mus_False|1_98 (ssRNA)
RNA: GGGAGUUCUACAGUCCGACGAUCUCCGUCAAGCCCUUCAAGCCCCACUUGCGGGGGAAACUGUAAUCACUUUGUAUGGGGAAGGAAAAGAAACGCCAAAAACUUUCCAAAAAGCGGGGGUGGGGUGAGGCGGGAGGUUGGGAACAACAGAGGAUUGAGCAUCA
B9: chr2:33267772:33267773:-_ENSMUSG00000068966_ENSMUST00000091037|mus_mus|FALSE|FALSE (ssRNA)
RNA: GGGAGUUCUACAGUCCGACGAUCCAUCCUUCCAGUGUAACAGAAGGAGAGCAACUGCUCAAACACGCUGGGGUUCUUAAUCACAGAGAUCGACAAGCCACUCAUAGUGCUCAGUGCUGAAUGGUCCCGGAAAUACGGGGAGCUCAACAGAGGAUUGAGCAUCA
B10: chr7:54823571:54823572:-_ENSG00000132432_ENST00000352861|hu_mus|hu_hu_hu_mus_False|88_98 (ssRNA)
RNA: GGGAGUUCUACAGUCCGACGAUCUCCCAUGAUAGCAAAUCCUAUUGCUGUUGCCAUGGCAAUCUUCUGGAAUUCUUUUCUGUCGGGUUUGGUGCAUCUUUUAACCAGCCGAAUUGAGUCCUUUACAAACUGCCGGCUGGGCUCCAACAGAGGAUUGAGCAUCA
B11: chr16:14041815:14041816:+_ENSG00000175595_ENST00000311895|hu_hu|motif|central (ssRNA)
RNA: GGGAGUUCUACAGUCCGACGAUCGGGGCACCAGAGAAUCCGUAGUCUGGGGAAGUGAAGUGUAAGAAGAGUGAGUUUGGAACGGAUGUCAUUGCUGGAGAUCUCCUGAAACAAGGCACCUCGGGAAGUGAGAGAGAAAGGCUUCAACAGAGGAUUGAGCAUCA
B12: chr1:39494447:39494448:+_ENSG00000168653_ENST00000372967|hu_mus|hu_hu_hu_mus_False|48_108 (ssRNA)
RNA: GGGAGUUCUACAGUCCGACGAUCGCAUCGACCAGCCUUCUUAUAGGGCUGUUCUGCGCUUAGGAACAUAAAGUGCCGGUCCAGGCUAAGGCCGAACUUUUUCUGUAUGUCAAGGAAAGGCAUGGCUCUGCAGUGCCCUUGUCACAACAGAGGAUUGAGCAUCA
B13: chr17:64801638:64801639:+_ENSG00000154229_ENST00000413366|hu_mus|hu_hu_hu_mus_False|28_58 (ssRNA)
RNA: GGGAGUUCUACAGUCCGACGAUCUAUAUAUAUAUAUACAUAUGUACACAUAUAUAGUAAAACCCUAGUUAAACGUGUAAACUAGCCAUUCAUUUUUAAAAUUACAUCUACAUUUAAAAAUUAAUAUAUCUGAUAGAGUGCCAGCAACAGAGGAUUGAGCAUCA
B14: chr7:141450121:141450122:+_ENSG00000106028_ENST00000265304|hu_mus|FALSE|FALSE (ssRNA)
RNA: GGGAGUUCUACAGUCCGACGAUCUCAUCCGUUCUAUGCCUUUUCUUUUGUCUGGUCACUCAGAAAUAUAAUGUUAUCAGCUAUGAUUGUUGUUGCUUGCCGCCUCACAUUGUUUUUAUCCAUGUACUCGCCAUAGUCCACUUUCAACAGAGGAUUGAGCAUCA

These binders were tested against T1, UNK ZnF1-3 (assay: nsRBNS (natural sequence RNA bind-n-seq); RBNS binding buffer (assumed for nsRBNS): 25 mM Tris pH 7.5, 150 mM KCl, 3 mM MgCl2, 0.01% Triton X-100, 500 ug/ml BSA, 20 U/ml SUPERase-In, 4 C; UNK is unkempt and MSI1 is Musashi-1; names of the RNAs are library labels; protein concentration not given here; high values mean tight binding).

Row | Binder | binding signal
1 | B1 | 2.09 enrichment R
2 | B2 | 1.23 enrichment R
3 | B3 | 2.02 enrichment R
4 | B4 | 0.553 enrichment R
5 | B5 | 0.856 enrichment R
6 | B6 | 1.24 enrichment R
7 | B7 | 0.893 enrichment R
8 | B8 | 1.93 enrichment R
9 | B9 | 1.67 enrichment R
10 | B10 | 0.604 enrichment R
11 | B11 | 2.12 enrichment R
12 | B12 | 0.807 enrichment R
13 | B13 | 1.56 enrichment R
14 | B14 | 0.387 enrichment R
